Peptide text beside a SMILES is read from it. * marks the point of attachment. Cbz = O=C(OCc1ccccc1)*; CH2F = FC*
Tests used:
HeLa cells [1] = assay: Immunoblotting of apoptosis-specific cleavage of keratin 18 and PARP in HeLa cells; format: cell-based; settings: for caspase-mediated protein cleavage (K18, PARP), drugs used alone (FIG. 12C, D): single drug
From the text: Whether induction of apoptosis played a role in the impact of the drug treatments on the number of viable cells was investigated. Apoptosis was monitored by the appearance of caspase-specific cleavage products of keratin 18 and PARP.
Detection reagent (ECL) was from Perkin Elmer (Shelton, Conn.).

HSF1 [2] = format: cell-based; settings: 0.1 μM Bortezomib or 1 μM 17-DMAG alone
HSF1 [3] = assay: Electrophoretic mobility shift assay (EMSA) of HSF1 DNA binding activity in HeLa extracts; format: cell-based; settings: 5 μM MG132 or 1 μM 17-DMAG, 4 h, cytoplasmic and nuclear extracts
From the text: Activation of HSF1-mediated transcription requires release of HSF1 from its complex with hsp90 in the cytoplasm. This is followed by formation of HSF1 homodimers and homotrimers that translocate into the nucleus and bind to specific HSF1 recognition sites within the promoters of heat shock-inducible genes. The effect of QC and 9AA on this process was studied in order to define the point at which these compounds act to inhibit HSF1 function. To assess the intracellular localization and DNA binding capacity of HSF1 complexes, electrophoretic mobility shift assays (EMSA) were performed using protein extracts purified from the cytoplasm or nuclei of cells subjected to proteotoxic stress alone or in combination with QC or 9AA.
HSF1 DNA binding activity was detected using EMSA. Briefly, cytoplasmic and nuclear protein extracts were purified using the Digman protocol from control HeLa cells and HeLa cells treated with MG132 or 17-DMAG alone, or in combination with QC or 9AA. 10 μg of protein extracts were analyzed with a ^32P-labeled double-stranded oligonucleotide (5′ TCG-AGC-TAG-AAG-CTT-CTA-GAA-GCT-TCT-AGC 3′) (SEQ ID NO: 4) specific for HSF1 binding. For the competition assay, a 50× excess of unlabeled oligonucleotides was added to protein extracts together with ^32P-labeled double-stranded oligonucleotides. […]

HeLa cells [4] = assay: Cell viability assay (methylene blue) in HeLa cells; format: cell-based; settings: 17-DMAG 1 μM or bortezomib 0.1 μM alone
Experimental: To determine the cytotoxicity of drugs and drug combinations, a cell viability assay was used. […] Cells were collected by trypsinization and a 1:50 dilution was seeded in a 6-well plate. […] Methylene blue was extracted by 0.1M HCl and its absorbance was measured at 560 nm.

MCA205 tumors = assay: hsp70 induction in MCA205 tumors after intra-tumor injection; format: in vivo, C57BL/6 mice; settings: single intra-tumor injection, 5 h
MCA205 fibrosarcoma = assay: In vivo assay for tumor growth, MCA205 fibrosarcoma; parameters: species or system C57BL/6 mice; settings: intra-tumor injection, 1.25 mg QC or 25 μg 17-DMAG
Experimental: (§1) MCA205 and B-16 cells were detached from plastic Petri dishes using 0.5% Trypsin-EDTA, washed and resuspended in sterile PBS. Cells were injected intra-dermally into the shaved abdominal area of C57BL/6 mice (3×10^5 cells in a single injection/mouse). Tumors were measured in two dimensions and tumor volume was calculated according to the formula: […]. On day 8 after implantation, tumors were typically ˜50 mm^3 in size. Tumor-bearing mice were divided into four groups of five animals each and began receiving intra-tumor drug injections on day 9. The control group received PBS injections on days 9, 10, 11, and 12. Mice in group 2 were injected with 1.25 mg QC in PBS on days 9 and 10. Mice in group 3 received 25 μg 17-DMAG in PBS on days 9, 10, 11, and 12. Mice in group 4 were injected with 1.25 mg QC+25 μg 17-DMAG on days 9 and 10, and 25 μg 17-DMAG on days 11 and 12. Only two injections of QC were given, because this drug is stable inside of cells. It may be detected in cells as long as 72 h after treatment and the change of medium. Tumors were measured every 2 days after drugs injections for 24 days. Animals with tumors volume 500 mm3 and larger were euthanized.

B-16 melanoma = assay: In vivo assay for tumor growth, B-16 melanoma; parameters: species or system C57BL/6 mice; settings: intra-tumor injection, 1.25 mg QC or 25 μg 17-DMAG
Experimental: as §1

hsp70 (inducible form) = assay: Western immunoblotting of inducible hsp70 in HeLa cells under proteotoxic stress; settings: MG132-treated HeLa, 0.5 μM bafilomycin

SMILES | HSF1 DNA binding activity, stress inducer alone (FIG. 11A, 11B) (HSF1 [3]) | toxicity of stress inducer alone (HeLa cells [4]) | caspase-mediated protein cleavage (K18, PARP), drugs used alone (FIG. 12C, D) (HeLa cells [1]) | also measured
COC(=O)C[C@H](NC(=O)[C@H](C)NC(=O)[C@@H](NC(=O)OCc1ccccc1)C(C)C)C(=O)CF [ZVAD-FMK] (Cbz-Val-Ala-Asp(OMe)-CH2F) | – | – | – | effect of caspase inhibitor on cleavage induced by the combinations (FIG. 12E) (HeLa cells [1]; overnight, 20 μM ZVAD-FMK with 20 μM QC and 17-DMAG or bortezomib): blocked this effect completely
CO[C@H]1/C=C\C=C(/C)C(=O)NC2=CC(=O)C(NCCN(C)C)=C(C[C@@H](C)C[C@H](OC)[C@H](O)[C@@H](C)/C=C(\C)[C@@H]1OC(N)=O)C2=O [17-DMAG] | led to activation of specific HSF1 DNA binding activity | practically non-toxic | barely detectable | HSF1-dependent EGFP synthesis, stress inducer alone (FIG. 10D) (HSF1 [2]): HSF1-dependent EGFP synthesis was induced; hsp70 synthesis in tumors in vivo, 17-DMAG alone (FIG. 13C) (MCA205 tumors): induced hsp70 synthesis; antitumor effect as single agent, MCA205 (FIG. 13D) (MCA205 fibrosarcoma): minor antitumor effects; antitumor effect as single agent, B-16 (FIG. 13E) (B-16 melanoma): minor antitumor effects
CC(C)C[C@H](NC(=O)[C@H](Cc1ccccc1)NC(=O)c1cnccn1)B(O)O [bortezomib] | – | practically non-toxic | barely detectable | –
CO/C1=C\C(C)=C\[C@@H](C)[C@@H](O)[C@@H](C)C/C(C)=C/C=C/[C@H](OC)[C@@H]([C@@H](C)[C@@H](O)[C@H](C)[C@@]2(O)C[C@@H](O)[C@H](C)[C@@H](C(C)C)O2)OC1=O [Bafilomycin] | – | – | – | effect of bafilomycin on efficacy of QC as HSR inhibitor (FIG. 11D) (hsp70 (inducible form)): increased the efficacy of QC as an HSR inhibitor
CC(C)C[C@@H](C=O)NC(=O)[C@H](CC(C)C)NC(=O)[C@H](CC(C)C)NC(=O)OCc1ccccc1 [MG132] (Cbz-Leu-Leu-Leu-aldehyde) | led to activation of specific HSF1 DNA binding activity | – | – | –
